# The supplement of paper PMC8728848
# Some of the results follow.
# B1: HML-Native (Hypnea musciformis), P84871 (protein)
# chain: QKFCTLDIAPVCCQIVIGGGMYTAGNACMCEGFVSGVGRCENPKECPCTREAQIPSCCSSRWGLVSVTGKCACDCLGGTVAFPEPCPSPY
# Experiments:
# Assay in all cases: glycan array binding signal (z-score within array); higher = stronger binding
# Conditions in all cases: glycan notation: IUPAC condensed, linker removed
# [1] = molecular target: Man(a1-2)Man(a1-3)[Man(a1-2)Man(a1-6)]Man
# How it was run: (§1)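 From the Consortium for Functional Glycomics database, 3228 arrays were curated, keeping only those whose protein sequence was available. Binding is given as a within-array Z-score averaged across arrays sharing a protein sequence and across linkers. Negative Z-scores can be read as non-binding.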
# [2] = molecular target: Man(a1-2)Man(a1-3)[Man(a1-2)Man(a1-6)]Man(a1-6)[Man(a1-2)Man(a1-2)Man(a1-3)]Man
# How it was run: as §1
# [3] = molecular target: Man(a1-2)Man(a1-3)[Man(a1-2)Man(a1-6)]Man(a1-6)[Man(a1-2)Man(a1-2)Man(a1-3)]Man(b1-4)GlcNAc(b1-4)GlcNAc
# How it was run: as §1
# [4] = molecular target: Man(a1-2)Man(a1-3)[Man(a1-6)]Man(a1-6)[Man(a1-2)Man(a1-3)]Man(b1-4)GlcNAc(b1-4)GlcNAc
# How it was run: as §1
# [5] = molecular target: Man(a1-2)Man(a1-6)[Man(a1-3)]Man(a1-6)[Man(a1-2)Man(a1-2)Man(a1-3)]Man
# How it was run: as §1
# [6] = molecular target: Man(a1-2)Man(a1-6)[Man(a1-3)]Man(a1-6)[Man(a1-2)Man(a1-2)Man(a1-3)]Man(b1-4)GlcNAc(b1-4)GlcNAc
# How it was run: as §1
# Man(a1-3)[Man(a1-6)]Man = molecular target: Man(a1-3)[Man(a1-6)]Man
# How it was run: as §1
# [7] = molecular target: Man(a1-3)[Man(a1-6)]Man(a1-6)[Man(a1-2)Man(a1-3)]Man(b1-4)GlcNAc(b1-4)GlcNAc
# How it was run: as §1
# [8] = molecular target: Man(a1-3)[Man(a1-6)]Man(a1-6)[Man(a1-3)]Man
# How it was run: as §1
# [9] = molecular target: Man(a1-3)[Man(a1-6)]Man(a1-6)[Man(a1-3)]Man(b1-4)GlcNAc(b1-4)GlcNAc
# How it was run: as §1
# [10] = molecular target: Man(a1-3)[Man(a1-6)]Man(b1-4)GlcNAc(b1-4)GlcNAc
# How it was run: as §1
# [11] = molecular target: Man(a1-3)[Man(a1-6)]Man(b1-4)GlcNAc(b1-4)[Fuc(a1-6)]GlcNAc
# How it was run: as §1
# Man(a1-6)Man = molecular target: Man(a1-6)Man
# How it was run: as §1
# Man(b1-4)GlcNAc = molecular target: Man(b1-4)GlcNAc
# How it was run: as §1
# MurNAc(b1-4)GlcNAc = molecular target: MurNAc(b1-4)GlcNAc
# How it was run: as §1
# Neu5Ac(a2-3)Gal = molecular target: Neu5Ac(a2-3)Gal
# How it was run: as §1
# [12] = molecular target: Neu5Ac(a2-3)Gal(b1-3)GalNAc
# How it was run: as §1
# [13] = molecular target: Neu5Ac(a2-3)Gal(b1-3)GalNAc(b1-3)Gal(a1-4)Gal(b1-4)Glc
# How it was run: as §1
# [14] = molecular target: Neu5Ac(a2-3)Gal(b1-3)GalNAc(b1-4)[Neu5Ac(a2-3)]Gal(b1-4)Glc
# How it was run: as §1
# [15] = molecular target: Neu5Ac(a2-3)Gal(b1-3)GalNAc(b1-4)[Neu5Ac(a2-8)Neu5Ac(a2-3)]Gal(b1-4)Glc
# How it was run: as §1
# [16] = molecular target: Neu5Ac(a2-3)Gal(b1-3)GalNAc6S
# How it was run: as §1
# [17] = molecular target: Neu5Ac(a2-3)Gal(b1-3)GlcNAc
# How it was run: as §1
# [18] = molecular target: Neu5Ac(a2-3)Gal(b1-3)GlcNAc(b1-2)Man
# How it was run: as §1
# [19] = molecular target: Neu5Ac(a2-3)Gal(b1-3)GlcNAc(b1-2)Man(a1-3)[GlcNAc(b1-4)][Neu5Ac(a2-3)Gal(b1-3)GlcNAc(b1-2)Man(a1-6)]Man(b1-4)GlcNAc(b1-4)GlcNAc
# How it was run: as §1
# [20] = molecular target: Neu5Ac(a2-3)Gal(b1-3)GlcNAc(b1-2)Man(a1-3)[Neu5Ac(a2-3)Gal(b1-3)GlcNAc(b1-2)Man(a1-6)]Man(b1-4)GlcNAc(b1-4)GlcNAc
# How it was run: as §1
# [21] = molecular target: Neu5Ac(a2-3)Gal(b1-3)GlcNAc(b1-2)[Neu5Ac(a2-3)Gal(b1-3)GlcNAc(b1-4)]Man(a1-6)[Neu5Ac(a2-3)Gal(b1-3)GlcNAc(b1-2)Man(a1-3)]Man(b1-4)GlcNAc(b1-4)GlcNAc
# How it was run: as §1
# [22] = molecular target: Neu5Ac(a2-3)Gal(b1-3)GlcNAc(b1-3)Gal(b1-3)GlcNAc
# How it was run: as §1
# [23] = molecular target: Neu5Ac(a2-3)Gal(b1-3)GlcNAc(b1-3)Gal(b1-4)GlcNAc
# How it was run: as §1
# [24] = molecular target: Neu5Ac(a2-3)Gal(b1-3)GlcNAc(b1-3)GalNAc
# How it was run: as §1
# [25] = molecular target: Neu5Ac(a2-3)Gal(b1-3)GlcNAc(b1-4)Gal(b1-4)Glc
# How it was run: as §1
# [26] = molecular target: Neu5Ac(a2-3)Gal(b1-3)GlcNAc(b1-6)GalNAc
# How it was run: as §1
# [27] = molecular target: Neu5Ac(a2-3)Gal(b1-3)GlcNAc6S
# How it was run: as §1
# [28] = molecular target: Neu5Ac(a2-3)Gal(b1-3)[Fuc(a1-4)]GlcNAc
# How it was run: as §1
# [29] = molecular target: Neu5Ac(a2-3)Gal(b1-3)[Fuc(a1-4)]GlcNAc(b1-3)Gal(b1-3)[Fuc(a1-4)]GlcNAc
# How it was run: as §1
# [30] = molecular target: Neu5Ac(a2-3)Gal(b1-3)[Fuc(a1-4)]GlcNAc(b1-3)Gal(b1-4)[Fuc(a1-3)]GlcNAc
# How it was run: as §1
# [31] = molecular target: Neu5Ac(a2-3)Gal(b1-3)[GlcNAc(b1-6)]GalNAc
# How it was run: as §1
# [32] = molecular target: Neu5Ac(a2-3)Gal(b1-3)[Neu5Ac(a2-6)]GalNAc
# How it was run: as §1
# [33] = molecular target: Neu5Ac(a2-3)Gal(b1-3)[Neu5Ac(a2-6)]GlcNAc(b1-3)[Fuc(a1-3)[Gal(b1-4)]GlcNAc(b1-6)]Gal(b1-4)Glc
# How it was run: as §1
# [34] = molecular target: Neu5Ac(a2-3)Gal(b1-3)]Neu5Ac(a2-3)Gal(b1-4)]GlcNAc
# How it was run: as §1
# Neu5Ac(a2-3)Gal(b1-4)Glc = molecular target: Neu5Ac(a2-3)Gal(b1-4)Glc
# How it was run: as §1
# [35] = molecular target: Neu5Ac(a2-3)Gal(b1-4)GlcNAc
# How it was run: as §1
# [36] = molecular target: Neu5Ac(a2-3)Gal(b1-4)GlcNAc(b1-2)Man
# How it was run: as §1
# [37] = molecular target: Neu5Ac(a2-3)Gal(b1-4)GlcNAc(b1-2)Man(a1-3)[GlcNAc(b1-4)][Neu5Ac(a2-3)Gal(b1-4)GlcNAc(b1-2)Man(a1-6)]Man(b1-4)GlcNAc(b1-4)GlcNAc
# How it was run: as §1
# [38] = molecular target: Neu5Ac(a2-3)Gal(b1-4)GlcNAc(b1-2)Man(a1-3)[Neu5Ac(a2-3)Gal(b1-4)GlcNAc(b1-2)Man(a1-6)]Man(b1-4)GlcNAc(b1-4)GlcNAc
# How it was run: as §1
# [39] = molecular target: Neu5Ac(a2-3)Gal(b1-4)GlcNAc(b1-2)Man(a1-3)[Neu5Ac(a2-3)Gal(b1-4)GlcNAc(b1-2)Man(a1-6)]Man(b1-4)GlcNAc(b1-4)[Fuc(a1-6)]GlcNAc
# How it was run: as §1
binder,measurement,setting,value
B1,glycan array binding signal (z-score),[1],-0.319
same,glycan array binding signal (z-score),[2],-0.298
same,glycan array binding signal (z-score),[3],-0.261
same,glycan array binding signal (z-score),[4],-0.277
same,glycan array binding signal (z-score),[5],-0.247
same,glycan array binding signal (z-score),[6],-0.223
same,glycan array binding signal (z-score),Man(a1-3)[Man(a1-6)]Man,-0.241
same,glycan array binding signal (z-score),[7],-0.068
same,glycan array binding signal (z-score),[8],-0.115
same,glycan array binding signal (z-score),[9],-0.105
same,glycan array binding signal (z-score),[10],0.009
same,glycan array binding signal (z-score),[11],5.72
same,glycan array binding signal (z-score),Man(a1-6)Man,-0.3
same,glycan array binding signal (z-score),Man(b1-4)GlcNAc,-0.214
same,glycan array binding signal (z-score),MurNAc(b1-4)GlcNAc,-0.318
same,glycan array binding signal (z-score),Neu5Ac(a2-3)Gal,-0.249
same,glycan array binding signal (z-score),[12],-0.275
same,glycan array binding signal (z-score),[13],-0.338
same,glycan array binding signal (z-score),[14],-0.24
same,glycan array binding signal (z-score),[15],-0.25
same,glycan array binding signal (z-score),[16],-0.336
same,glycan array binding signal (z-score),[17],-0.278
same,glycan array binding signal (z-score),[18],-0.258
same,glycan array binding signal (z-score),[19],-0.21
same,glycan array binding signal (z-score),[20],-0.233
same,glycan array binding signal (z-score),[21],-0.141
same,glycan array binding signal (z-score),[22],-0.295
same,glycan array binding signal (z-score),[23],-0.286
same,glycan array binding signal (z-score),[24],-0.224
same,glycan array binding signal (z-score),[25],-0.324
same,glycan array binding signal (z-score),[26],-0.229
same,glycan array binding signal (z-score),[27],-0.047
same,glycan array binding signal (z-score),[28],-0.312
same,glycan array binding signal (z-score),[29],-0.196
same,glycan array binding signal (z-score),[30],-0.278
same,glycan array binding signal (z-score),[31],-0.128
same,glycan array binding signal (z-score),[32],-0.203
same,glycan array binding signal (z-score),[33],-0.259
same,glycan array binding signal (z-score),[34],-0.292
same,glycan array binding signal (z-score),Neu5Ac(a2-3)Gal(b1-4)Glc,-0.216
same,glycan array binding signal (z-score),[35],-0.181
same,glycan array binding signal (z-score),[36],-0.22
same,glycan array binding signal (z-score),[37],-0.312
same,glycan array binding signal (z-score),[38],-0.283
same,glycan array binding signal (z-score),[39],4.19
